Substrate: OC[C@H]1O[C@@](CO)(O[C@H]2O[C@H](CO)[C@@H](O)[C@H](O)[C@H]2O)[C@@H](O)[C@@H]1O
Assay: glucose oxidase/peroxidase coupled glucose release
Format: biochemical, Saccharomyces cerevisiae
Conditions: Michaelis-Menten or Hill fit

B1: Mal12 (Saccharomyces cerevisiae S288C) (protein)
chain: MTISDHPETEPKWWKEATIYQIYPASFKDSNNDGWGDLKGITSKLQYIKDLGVDAIWVCPFYDSPQQDMGYDISNYEKVWPTYGTNEDCFELIDKTHKLGMKFITDLVINHCSTEHEWFKESRSSKTNPKRDWFFWRPPKGYDAEGKPIPPNNWKSFFGGSAWTFDETTNEFYLRLFASRQVDLNWENEDCRRAIFESAVGFWLDHGVDGFRIDTAGLYSKRPGLPDSPIFDKTSKLQHPNWGSHNGPRIHEYHQELHRFMKNRVKDGREIMTVGEVAHGSDNALYTSAARYEVSEVFSFTHVEVGTSPFFRYNIVPFTLKQWKEAIASNFLFINGTDSWATTYIENHDQARSITRFADDSPKYRKISGKLLTLLECSLTGTLYVYQGQEIGQINFKEWPIEKYEDVDVKNNYEIIKKSFGKNSKEMKDFFKGIALLSRDHSRTPMPWTKDKPNAGFTGPDVKPWFLLNESFEQGINVEQESRDDDSVLNFWKRALQARKKYKELMIYGYDFQFIDLDSDQIFSFTKEYEDKTLFAALNFSGEEIEFSLPREGASLSFILGNYDDTDVSSRVLKPWEGRIYLVK
notes: purified present-day enzyme; expression details in Text S1
**Q.** For B1, which Km is on record?
**A.** 11.96 ± 0.68 mM

**Q.** And the kcat?
**A.** 0.4497 ± 0.007 s⁻¹
